The text below walks through data of patent publication US8268821B2, “Methods and compositions” (priority 2003, dated 2012).

The subject of test [1] is Electrical Current Threshold (ECT) test in male Wistar rats. As to the kind of experiment: Electrical current threshold (ECT) test.
Test [2] relates to carrageenan-induced hyperalgesia in male Wistar rats. In words: Carrageenan paw inflammation and paw flick test of nociception. As to conditions: for Post-treatment mean paw withdrawal latency: 140, 150 and 160 minute readings, saline controls 6.22.
Test [3] concerns streptozotocin-induced diabetic neuropathy in male Wistar rats. As to the kind of experiment: Streptozotocin-induced diabetic neuropathy, paw pressure test. Conditions: for pre-drug mean paw withdrawal threshold: times -20, -10 and 0; for post-drug mean paw withdrawal threshold: +20, +30 and +40 min, saline 30.94.

Turning to `CCOC(=O)Nc1ccc(NCc2ccc(F)cc2)nc1N` [flupirtine], the “standardized ECT value (ratio to pre-drug mean), mean” value in test [1] (flupirtine 5 mg/kg ip, post (10-30 minutes), saline post 1.27) was determined as 1.54; in test [1] (flupirtine 5 mg/kg ip, pre), 1.00; in test [1] (flupirtine 10 mg/kg ip, post, saline post 1.27), 1.92; in test [1] (flupirtine 10 mg/kg ip, pre), 1.00. For the same compound, the “Pre-treatment mean paw withdrawal latency” value in test [2] (flupirtine 5 mg/kg ip alone group, readings -20, -10 and 0 before carrageenan and drug) was determined as 10.90 s; in test [2] (flupirtine 10 mg/kg alone group, readings -20, -10 and 0), 10.97 s. Besides, the “Post-treatment mean paw withdrawal latency” value in test [2] (flupirtine 5 mg/kg ip alone) is 5.82 s; in test [2] (flupirtine 10 mg/kg alone) it was 5.51 s. Further, the “effect on carrageenan-induced hyperalgesia” value in test [2] (flupirtine 5 and 10 mg/kg alone) is “no effect”. For the same compound, the “pre-drug mean paw withdrawal threshold” value worked out at 28.25 grams in test [3] (flupirtine 5 mg/kg alone group, non diabetic controls 44.7) and 27.89 grams in test [3] (flupirtine 10 mg/kg alone group). The “post-drug mean paw withdrawal threshold” value in test [3] (flupirtine 5 mg/kg alone ip, non diabetic controls 44.7) is 31.90 grams; in test [3] (flupirtine 10 mg/kg alone ip, non diabetic controls 44.7), 41.00 grams.

In the case of `CN1CC[C@]23c4c5ccc(O)c4O[C@H]2[C@@H](O)C=C[C@H]3[C@H]1C5` [morphine], the “standardized ECT value (ratio to pre-drug mean), mean” value amounted to 1.46 in test [1] (morphine 0.4 mg/kg ip, post, saline post 1.27) and 1.00 in test [1] (morphine 0.4 mg/kg ip, pre). Also, the “antinociception in ECT test” value in test [1] (morphine 0.4 mg/kg, p<0.001 vs saline) was “significant antinociception”. Moreover, the “Pre-treatment mean paw withdrawal latency” value in test [2] (morphine 0.4 mg/kg ip alone group, readings -20, -10 and 0) came to 12.10 s; in test [2] (morphine 0.8 mg/kg alone group, readings -20, -10 and 0), 10.02 s; in test [2] (morphine 1.6 mg/kg alone group, readings -20, -10 and 0) it was 10.30 s. The “Post-treatment mean paw withdrawal latency” value in test [2] (morphine 0.4 mg/kg ip alone) came to 5.76 s; in test [2] (morphine 0.8 mg/kg alone), 4.88 s; in test [2] (morphine 1.6 mg/kg alone), 8.88 s. In addition, the “effect on carrageenan-induced hyperalgesia” value in test [2] (morphine 0.4 and 0.8 mg/kg alone) is listed as “no effect”. Besides, the “pre-drug mean paw withdrawal threshold” value in test [3] (morphine 1.6 mg/kg alone group) was determined as 28.10 grams; in test [3] (morphine 3.2 mg/kg alone group), 26.67 grams. Also, the “post-drug mean paw withdrawal threshold” value turned out to be 31.90 grams in test [3] (morphine 1.6 mg/kg alone ip, non diabetic controls 44.7) and 35.00 grams in test [3] (morphine 3.2 mg/kg alone ip, non diabetic controls 44.7). Further, in test [3] (morphine 1.6 mg/kg alone, p>0.05 vs before drug), the “reversal of diabetes-induced hyperalgesia” value was “no significant reversal”. Besides, the “antinociception in diabetic neuropathy” value in test [3] (morphine 3.2 mg/kg given alone, p<0.05, less than morphine 1.6 mg/kg with flupirtine 10 mg/kg (p<0.001)) is given as “significant antinociception”.
